# In the supplement of paper PMC8728848:
# This is one part of the list.
# Columns and labels:
# Assay in all cases: glycan array binding signal (z-score within array); higher = stronger binding
# Conditions in all cases: glycan notation: IUPAC condensed, linker removed
# [1] = target: Fuc(a1-2)Gal6S(b1-3)GlcNAc6S
# In short: (§1)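 From the Consortium for Functional Glycomics database, 3228 arrays were curated, keeping only those whose protein sequence was available. Binding is given as a within-array Z-score averaged across arrays sharing a protein sequence and across linkers. Negative Z-scores can be read as non-binding.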
# Fuc(a1-2)Gal6S(b1-4)Glc = target: Fuc(a1-2)Gal6S(b1-4)Glc
# In short: as §1
# [2] = target: Fuc(a1-2)Gal6S(b1-4)Glc6S
# In short: as §1
# Fuc(a1-2)[Gal(a1-3)]Gal = target: Fuc(a1-2)[Gal(a1-3)]Gal
# In short: as §1
# [3] = target: Fuc(a1-2)[Gal(a1-3)]Gal(b1-3)GalNAc
# In short: as §1
# [4] = target: Fuc(a1-2)[Gal(a1-3)]Gal(b1-3)GalNAc(b1-3)Gal(a1-4)Gal(b1-4)Glc
# In short: as §1
# [5] = target: Fuc(a1-2)[Gal(a1-3)]Gal(b1-3)GlcNAc
# In short: as §1
# [6] = target: Fuc(a1-2)[Gal(a1-3)]Gal(b1-3)GlcNAc(b1-2)Man(a1-3)[Fuc(a1-2)[Gal(a1-3)]Gal(b1-3)GlcNAc(b1-2)Man(a1-6)]Man(b1-4)GlcNAc(b1-4)GlcNAc
# In short: as §1
# [7] = target: Fuc(a1-2)[Gal(a1-3)]Gal(b1-3)GlcNAc(b1-2)Man(a1-3)[Fuc(a1-2)[Gal(a1-3)]Gal(b1-3)GlcNAc(b1-2)Man(a1-6)]Man(b1-4)GlcNAc(b1-4)[Fuc(a1-6)]GlcNAc
# In short: as §1
# [8] = target: Fuc(a1-2)[Gal(a1-3)]Gal(b1-3)GlcNAc(b1-3)GalNAc
# In short: as §1
# [9] = target: Fuc(a1-2)[Gal(a1-3)]Gal(b1-3)GlcNAc(b1-6)GalNAc
# In short: as §1
# [10] = target: Fuc(a1-2)[Gal(a1-3)]Gal(b1-4)Glc
# In short: as §1
# [11] = target: Fuc(a1-2)[Gal(a1-3)]Gal(b1-4)GlcNAc
# In short: as §1
# [12] = target: Fuc(a1-2)[Gal(a1-3)]Gal(b1-4)GlcNAc(b1-2)Man
# In short: as §1
# [13] = target: Fuc(a1-2)[Gal(a1-3)]Gal(b1-4)GlcNAc(b1-2)Man(a1-3)[Fuc(a1-2)[Gal(a1-3)]Gal(b1-4)GlcNAc(b1-2)Man(a1-6)]Man(b1-4)GlcNAc(b1-4)GlcNAc
# In short: as §1
# [14] = target: Fuc(a1-2)[Gal(a1-3)]Gal(b1-4)GlcNAc(b1-2)Man(a1-3)[Fuc(a1-2)[Gal(a1-3)]Gal(b1-4)GlcNAc(b1-2)Man(a1-6)]Man(b1-4)GlcNAc(b1-4)[Fuc(a1-6)]GlcNAc
# In short: as §1
# [15] = target: Fuc(a1-2)[Gal(a1-3)]Gal(b1-4)GlcNAc(b1-3)GalNAc
# In short: as §1
# [16] = target: Fuc(a1-2)[Gal(a1-3)]Gal(b1-4)GlcNAc(b1-3)[Fuc(a1-2)[Gal(a1-3)]Gal(b1-4)GlcNAc(b1-6)]GalNAc
# In short: as §1
# [17] = target: Fuc(a1-2)[Gal(a1-3)]Gal(b1-4)GlcNAc(b1-6)GalNAc
# In short: as §1
# [18] = target: Fuc(a1-2)[Gal(a1-3)]Gal(b1-4)[Fuc(a1-3)]Glc
# In short: as §1
# [19] = target: Fuc(a1-2)[Gal(a1-3)]Gal(b1-4)[Fuc(a1-3)]GlcNAc
# In short: as §1
# [20] = target: Fuc(a1-2)[Gal(a1-3)]Gal(b1-4)[Fuc(a1-3)]GlcNAc(b1-3)GalNAc
# In short: as §1
# [21] = target: Fuc(a1-2)[Gal(a1-4)]Gal(b1-4)GlcNAc
# In short: as §1
# [22] = target: Fuc(a1-2)[GalNAc(a1-3)]Gal
# In short: as §1
# [23] = target: Fuc(a1-2)[GalNAc(a1-3)]Gal(b1-3)GalNAc(a1-3)[Fuc(a1-2)]Gal(b1-4)GlcNAc
# In short: as §1
# [24] = target: Fuc(a1-2)[GalNAc(a1-3)]Gal(b1-3)GalNAc(b1-3)Gal(a1-4)Gal(b1-4)Glc
# In short: as §1
# [25] = target: Fuc(a1-2)[GalNAc(a1-3)]Gal(b1-3)GlcNAc
# In short: as §1
# [26] = target: Fuc(a1-2)[GalNAc(a1-3)]Gal(b1-3)GlcNAc(b1-2)Man(a1-3)[Fuc(a1-2)[GalNAc(a1-3)]Gal(b1-3)GlcNAc(b1-2)Man(a1-6)]Man(b1-4)GlcNAc(b1-4)GlcNAc
# In short: as §1
# [27] = target: Fuc(a1-2)[GalNAc(a1-3)]Gal(b1-3)GlcNAc(b1-2)Man(a1-3)[Fuc(a1-2)[GalNAc(a1-3)]Gal(b1-3)GlcNAc(b1-2)Man(a1-6)]Man(b1-4)GlcNAc(b1-4)[Fuc(a1-6)]GlcNAc
# In short: as §1
# [28] = target: Fuc(a1-2)[GalNAc(a1-3)]Gal(b1-3)GlcNAc(b1-3)GalNAc
# In short: as §1
# [29] = target: Fuc(a1-2)[GalNAc(a1-3)]Gal(b1-3)GlcNAc(b1-6)GalNAc
# In short: as §1
# [30] = target: Fuc(a1-2)[GalNAc(a1-3)]Gal(b1-4)Glc
# In short: as §1
# [31] = target: Fuc(a1-2)[GalNAc(a1-3)]Gal(b1-4)GlcNAc
# In short: as §1
# [32] = target: Fuc(a1-2)[GalNAc(a1-3)]Gal(b1-4)GlcNAc(b1-2)Man
# In short: as §1
# [33] = target: Fuc(a1-2)[GalNAc(a1-3)]Gal(b1-4)GlcNAc(b1-2)Man(a1-3)[Fuc(a1-2)[GalNAc(a1-3)]Gal(b1-4)GlcNAc(b1-2)Man(a1-6)]Man(b1-4)GlcNAc(b1-4)GlcNAc
# In short: as §1
# [34] = target: Fuc(a1-2)[GalNAc(a1-3)]Gal(b1-4)GlcNAc(b1-2)Man(a1-3)[Fuc(a1-2)[GalNAc(a1-3)]Gal(b1-4)GlcNAc(b1-2)Man(a1-6)]Man(b1-4)GlcNAc(b1-4)[Fuc(a1-6)]GlcNAc
# In short: as §1
# [35] = target: Fuc(a1-2)[GalNAc(a1-3)]Gal(b1-4)GlcNAc(b1-3)Gal(b1-4)GlcNAc
# In short: as §1
# [36] = target: Fuc(a1-2)[GalNAc(a1-3)]Gal(b1-4)GlcNAc(b1-3)Gal(b1-4)GlcNAc(b1-3)Gal(b1-4)GlcNAc
# In short: as §1
# [37] = target: Fuc(a1-2)[GalNAc(a1-3)]Gal(b1-4)GlcNAc(b1-3)GalNAc
# In short: as §1
# [38] = target: Fuc(a1-2)[GalNAc(a1-3)]Gal(b1-4)GlcNAc(b1-3)[Fuc(a1-2)[GalNAc(a1-3)]Gal(b1-4)GlcNAc(b1-6)]GalNAc
# In short: as §1
# [39] = target: Fuc(a1-2)[GalNAc(a1-3)]Gal(b1-4)GlcNAc(b1-6)GalNAc
# In short: as §1
# [40] = target: Fuc(a1-2)[GalNAc(a1-3)]Gal(b1-4)[Fuc(a1-3)]GlcNAc
# In short: as §1
# [41] = target: Fuc(a1-2)[GalNAc(a1-3)]Gal(b1-4)[Fuc(a1-3)]GlcNAc(b1-3)GalNAc
# In short: as §1
# [42] = target: Fuc(a1-2)[GalNAc(a1-4)]Gal(b1-4)GlcNAc
# In short: as §1
# [43] = target: Fuc(a1-2)[GalNAc(b1-3)]Gal
# In short: as §1
binder,measurement,setting,value
PX9937A-bvu-521-23-521 (Bacteroides vulgatus) (protein) LDLAPEDYYGAGNFWKEASQPKAFMLGLHAQLRSYYDMFYTLGELRGGTQRVGTSSLNTSLNYADIRSQNISEDIPGISNWNGLYSPIMQVNHFIQEVENGCTFLDDATRSRYLGQAYGMRALYYFMLYRTFGGVPLITKVDILDGKPSADKFYVERATPEATMEFIKADINKSENYFGNNTSFDAYDWSRYATLMLKAEIYMWAAKVSITGFTATGATDLQTAKTALSGIIGHFELMDNFASIFSCDNKKNTEIIFAMPFIEGEASNDGGRFLYQDAVFLGQAYGRNGKVIEKDTLNLKGTGGVFRDEYTEDFWKTFKEGDSRRDATFMEYYMKNDNGTLSEFGCVMKKRIGTINSNDNRIYISDIPVYRYADALLMMAEIENGLNNPCASYINEVRKRAYGDTFEENKYTEGSYAENELAILQERDKEFVSEGKRWFDVLRMHDASGRSLVFSANANYPGTNPILGTEEAYKMLWPVNIGTLNVNPLLTQTPGYGKK,glycan array binding signal (z-score),[1],0.172
same,glycan array binding signal (z-score),Fuc(a1-2)Gal6S(b1-4)Glc,-0.274
same,glycan array binding signal (z-score),[2],0.257
same,glycan array binding signal (z-score),Fuc(a1-2)[Gal(a1-3)]Gal,0.12
same,glycan array binding signal (z-score),[3],-0.039
same,glycan array binding signal (z-score),[4],-0.525
same,glycan array binding signal (z-score),[5],0.093
same,glycan array binding signal (z-score),[6],1.77
same,glycan array binding signal (z-score),[7],-0.412
same,glycan array binding signal (z-score),[8],-0.479
same,glycan array binding signal (z-score),[9],-0.099
same,glycan array binding signal (z-score),[10],-0.1
same,glycan array binding signal (z-score),[11],0.053
same,glycan array binding signal (z-score),[12],-0.035
same,glycan array binding signal (z-score),[13],0.549
same,glycan array binding signal (z-score),[14],-0.293
same,glycan array binding signal (z-score),[15],-0.367
same,glycan array binding signal (z-score),[16],0.131
same,glycan array binding signal (z-score),[17],-0.61
same,glycan array binding signal (z-score),[18],-0.251
same,glycan array binding signal (z-score),[19],-0.308
same,glycan array binding signal (z-score),[20],-0.237
same,glycan array binding signal (z-score),[21],0.234
same,glycan array binding signal (z-score),[22],0.084
same,glycan array binding signal (z-score),[23],-0.378
same,glycan array binding signal (z-score),[24],-0.572
same,glycan array binding signal (z-score),[25],-0.014
same,glycan array binding signal (z-score),[26],-0.384
same,glycan array binding signal (z-score),[27],-0.437
same,glycan array binding signal (z-score),[28],0.96
same,glycan array binding signal (z-score),[29],-0.228
same,glycan array binding signal (z-score),[30],-0.677
same,glycan array binding signal (z-score),[31],-0.341
same,glycan array binding signal (z-score),[32],-0.33
same,glycan array binding signal (z-score),[33],0.319
same,glycan array binding signal (z-score),[34],0.053
same,glycan array binding signal (z-score),[35],-0.273
same,glycan array binding signal (z-score),[36],2.07
same,glycan array binding signal (z-score),[37],-0.185
same,glycan array binding signal (z-score),[38],-0.334
same,glycan array binding signal (z-score),[39],0.027
same,glycan array binding signal (z-score),[40],-0.498
same,glycan array binding signal (z-score),[41],0.824
same,glycan array binding signal (z-score),[42],-0.319
same,glycan array binding signal (z-score),[43],-0.399
